{"source": "PubChem BioAssay AID2147", "about": "(National Center for Advancing Translational Sciences (NCATS), 2009)", "note": "Several values for one entry are separate records, joined by “and”; a condition that tells them apart may be missing. Identical values can stand only once. About 3,600 (1.6%) of roughly 230,000 compounds were called active. The shares of active, inactive and inconclusive entries below differ from those in the screen. Calls follow the shape of the dose curve; as a rule, active = well fitted inhibition curve with a large enough effect (not every such curve was filed as active); inconclusive = small, poorly fitted or top-dose-only effect, or another doubt; inactive = no such curve, though single readings can be large or run the other way. Where the call is inconclusive, the potency comes from a doubtful curve fit. Also: nearly all actives have a fitted effect of over 50% in size.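 For activity change, negative = inhibition in this document: 0% = wells with enzyme and -100% = buffer wells without enzyme.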 Potency is read from the fitted curve at half-maximal effect; tags tell the direction and shape of the fitted curve."}
{"target": "Lysine-specific demethylase 4E (Homo sapiens) (UniProt B2RXH2)", "sequence (B2RXH2 whole entry, looked up, the tested form may be a part)": "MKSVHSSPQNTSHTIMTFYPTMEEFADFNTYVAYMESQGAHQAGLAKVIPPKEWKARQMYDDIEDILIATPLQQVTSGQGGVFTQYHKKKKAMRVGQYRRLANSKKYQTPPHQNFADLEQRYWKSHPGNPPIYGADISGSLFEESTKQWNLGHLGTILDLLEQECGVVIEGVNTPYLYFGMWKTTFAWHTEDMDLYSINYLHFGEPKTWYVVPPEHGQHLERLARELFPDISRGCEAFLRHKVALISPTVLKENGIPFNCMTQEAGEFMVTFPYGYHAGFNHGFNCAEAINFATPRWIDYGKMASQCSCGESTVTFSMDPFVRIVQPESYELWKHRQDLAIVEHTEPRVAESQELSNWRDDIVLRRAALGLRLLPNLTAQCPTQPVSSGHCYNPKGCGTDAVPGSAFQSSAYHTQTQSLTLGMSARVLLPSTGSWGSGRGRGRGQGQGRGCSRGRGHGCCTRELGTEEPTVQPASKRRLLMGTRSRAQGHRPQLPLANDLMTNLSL", "experiment": "qHTS Assay for Inhibitors of Human Jumonji Domain Containing 2E (JMJD2E)", "conditions": "JMJD2E catalytic domain, FDH-coupled NADH fluorescence (FDH is formaldehyde dehydrogenase); series mostly up to 57.1 µM; activity change, negative = inhibition: at the top concentration"}
{"smiles": "CCOC(=O)N1CCC(=NNC(=O)c2cc3ccccc3cc2O)CC1", "Potency": "inconclusive: 35.5 µM [inhibitor, single point]"}
{"smiles": "C=CCOn1c(=O)c(-c2cc3ccccc3o2)[n+]([O-])c2ccccc21", "activity change, negative = inhibition": "inactive: -1.71%"}
{"smiles": "CC1(C)CC(=O)C(Sc2ccccc2[N+](=O)[O-])=C(O)C1", "Potency": "inconclusive: 39.8 µM [inhibitor, single point]"}
{"smiles": "O=c1oc2ccccc2cc1-c1nc2c(s1)CCCC2", "Potency": "inconclusive: 35.5 µM [inhibitor, partial curve]"}
{"smiles": "CCS(=O)(=O)N1Cc2ccccc2CC1C(=O)Nc1nc(C)cs1", "note": "(stereo not drawn)", "activity change, negative = inhibition": "inactive: -6.75%"}
{"smiles": "CCN1CCCC1CNc1ncnc2c1[nH]c1ccc(Cl)cc12", "note": "(stereo not drawn)", "Potency": "inconclusive: 28.2 µM [inhibitor, partial curve]"}
{"smiles": "CC(C)(C)NC(=O)c1cccc2c1C(=O)c1ccccc1-2", "activity change, negative = inhibition": "inactive: 3.93%"}
{"smiles": "Cc1[nH]c2ccccc2c1C(=O)CSc1ncn[nH]1", "Potency": "inconclusive: 39.8 µM [inhibitor, single point]"}
{"smiles": "COc1ccc(C2=NN(C(=O)CCCC(=O)O)C(c3cn(-c4ccccc4)nc3-c3ccccc3)C2)cc1", "note": "(stereo not drawn)", "activity change, negative = inhibition": "inactive: -0.48%"}
{"smiles": "O=c1c2ccccc2cnn1Cc1n[nH]c(=S)n1-c1ccccc1", "Potency": "inconclusive: 39.8 µM [inhibitor, single point]"}
{"smiles": "COc1ccc(-c2ccc(CCC(=O)O)n2-c2ccc(O)cc2)cc1", "Potency": "inconclusive: 25.1 µM [inhibitor, single point]"}
{"smiles": "O=C(NCCCN1CCOCC1)C(=O)NCCc1ccccc1", "activity change, negative = inhibition": "inactive: 4.23%"}
{"smiles": "CCn1c(=N)c(S(=O)(=O)c2ccc(F)cc2)cc2c(=O)n3ccccc3nc21", "Potency": "inconclusive: 12.6 µM [inhibitor, partial curve]"}
{"smiles": "COc1ccc(-c2cc(C(F)(F)F)nc(SCC(=O)NCc3cccs3)n2)cc1OC", "Potency": "inconclusive: 28.2 µM [inhibitor, partial curve]"}
{"smiles": "COc1ccc(/C=N/NC(=O)CN2CCSCC2)cc1C", "activity change, negative = inhibition": "inactive: -2.02%"}
{"smiles": "COc1ccccc1NS(=O)(=O)c1cc(N)ccc1N1CCCCC1", "Potency": "inconclusive: 15.8 µM [inhibitor, single point]"}
{"smiles": "C=CCSC1=NNC(c2ccc(C(C)(C)C)cc2)=NN1", "activity change, negative = inhibition": "inactive: -4.16%"}
{"smiles": "COc1cc(OC)cc(C(=O)N=c2sc3ccccc3n2C)c1", "Potency": "inconclusive: 31.6 µM [inhibitor, partial curve]"}
{"smiles": "CCc1nc(N2CCC(C)CC2)c2oc3ccccc3c2n1", "Potency": "inconclusive: 35.5 µM [inhibitor, single point]"}
{"smiles": "COc1ccc(-c2cc3nc(C)cc(N4CC(C)CC(C)C4)n3n2)cc1", "note": "(stereo not drawn)", "Potency": "inconclusive: 31.6 µM [inhibitor, single point]"}
{"smiles": "Clc1ccc(-c2csc(-c3ccncc3)n2)cc1", "Potency": "inconclusive: 39.8 µM [inhibitor, single point]"}
{"smiles": "Cc1ccn2c(CNCCCn3cccn3)c(C(=O)N3CCCCCC3)nc2c1", "Potency": "inconclusive: 39.8 µM [inhibitor, single point]"}
{"smiles": "COc1cccc(/C=N/n2c(-c3cc(C)[nH]n3)n[nH]c2=S)c1", "activity change, negative = inhibition": "inactive: -4.62%"}
{"smiles": "C=CCOC(=O)c1sc(NC(=O)c2ccc(OC)cc2)nc1C", "Potency": "inconclusive: 8.91 µM [inhibitor, single point]"}
{"smiles": "COC(=O)C1=CN(CCOC23CC4CC(CC(C4)C2)C3)C=C(C(=O)OC)C1c1ccsc1", "Potency": "inconclusive: 28.2 µM [inhibitor, partial curve]"}
{"smiles": "COc1ccccc1-c1cc(C(F)(F)F)nc(S(=O)(=O)CCCC(=O)Nc2cc(C)on2)n1", "Potency": "inconclusive: 35.5 µM [inhibitor, partial curve]"}
{"smiles": "COCc1ccc(CN2CCCC(CO)(Cc3ccccc3)C2)o1", "note": "(stereo not drawn)", "Potency": "inconclusive: 8.91 µM [inhibitor, single point]"}
{"smiles": "N#Cc1ccc(-c2cccnc2)nc1SCC(N)=O", "Potency": "inconclusive: 31.6 µM [inhibitor, partial curve]"}
{"smiles": "CCCc1cc(C(=O)Cc2ccc(F)cc2)c(O)cc1O", "activity change, negative = inhibition": "inactive: -18.9%"}
{"smiles": "S=c1[nH]nc(-c2ccc(Cl)cc2)n1/N=C/C=C/c1ccco1", "Potency": "inconclusive: 39.8 µM [inhibitor, single point]"}
{"smiles": "COc1ccc(OC)c2c1CC(C)(C)NC2=O", "Potency": "inconclusive: 28.2 µM [inhibitor, partial curve]"}
{"smiles": "COc1cc2cc(CN(CCCN3CCOCC3)Cc3nnnn3Cc3ccccc3)c(=O)[nH]c2cc1OC", "Potency": "inconclusive: 25.1 µM [inhibitor, partial curve]"}
{"smiles": "C=CCn1c(-c2cccn(Cc3ccccc3)c2=O)n[nH]c1=S", "activity change, negative = inhibition": "inactive: -18.4%"}
{"smiles": "Cc1ccc(-c2nc3cccnc3s2)cc1NS(=O)(=O)c1ccc2c(c1)CCCC2", "Potency": "inconclusive: 31.6 µM [inhibitor, single point]"}
{"smiles": "O=C1c2cnc3nc(SCc4ccc(Cl)cc4)nn3c2CC2c3ccccc3CCN12", "note": "(stereo not drawn)", "Potency": "inconclusive: 0.631 µM [inhibitor, partial curve, poor fit]"}
{"smiles": "O=c1[nH]cnc2sc3c(c12)CCCC3", "activity change, negative = inhibition": "inactive: -19.8%"}
{"smiles": "COc1ccc2c(c1)O/C(=C\\c1ccco1)C2=O", "Potency": "inconclusive: 28.2 µM [inhibitor, partial curve]"}
{"smiles": "COCCCNC(=O)C(C#N)c1nc2ccccc2nc1N1CCN(Cc2ccccc2)CC1", "note": "(stereo not drawn)", "Potency": "inconclusive: 15.8 µM [inhibitor, partial curve]"}
{"smiles": "CCOC(=O)c1[nH]c2ccc(OC)cc2c1NC(C)=O", "Potency": "inconclusive: 28.2 µM [inhibitor, partial curve]"}
{"smiles": "CN1c2ccccc2C(C)(C)C12C=Nc1c(ccc3ccccc13)O2", "note": "(stereo not drawn)", "Potency": "active: 25.1 µM"}
{"smiles": "O=c1c2c(nc3c(-c4ccc(Cl)cc4)c[nH]n13)CCC2", "Potency": "inconclusive: 15.8 µM [inhibitor, partial curve]"}
{"smiles": "COc1ccc(S(=O)(=O)Cc2ccc(C(=O)N3CCN(c4cc(Cl)ccc4C)CC3)o2)cc1", "activity change, negative = inhibition": "inactive: -7.88%"}
{"smiles": "N=C1C(c2nc3ccccc3[nH]2)=C(O)CN1c1ccc(F)cc1", "Potency": "inconclusive: 35.5 µM [inhibitor, single point]"}
{"smiles": "O=c1oc2c(O)c(O)cc3c(=O)oc4c(O)c(O)cc1c4c23", "Potency": "active: 794 nM and active: 7.08 µM and active: 2.51 µM"}
{"smiles": "COc1cc2[nH]c(=S)nc(NCCc3ccc(C)cc3)c2cc1OC", "Potency": "inconclusive: 39.8 µM [inhibitor, single point]"}
{"smiles": "CC(=O)c1ccc(N2CCN(C(=O)c3cc(-c4ccc5c(c4)OCO5)nc4ccccc34)CC2)cc1", "Potency": "inconclusive: 20 µM [inhibitor, partial curve]"}
{"smiles": "COc1cc(/C=N/NC(=O)COc2cccc(F)c2)ccc1OS(=O)(=O)c1ccc(C)cc1", "activity change, negative = inhibition": "inactive: -1.51%"}
{"smiles": "CS(=O)(=O)N1CCN(c2ccc(NC(=O)CSc3ccc(Cl)cc3)cc2)CC1", "activity change, negative = inhibition": "inactive: 2.66%"}
{"smiles": "c1ccc2oc(-c3csc(N4CCOCC4)n3)cc2c1", "Potency": "inconclusive: 20 µM [inhibitor, partial curve]"}
{"smiles": "CN(C)CCNc1cc(-c2ccncc2)nc2ccccc12", "Potency": "inconclusive: 28.2 µM [inhibitor, single point]"}
{"smiles": "CC(=O)Nc1ccc(NC(=O)C2CCN(C(=O)c3cccs3)CC2)cc1", "activity change, negative = inhibition": "inactive: 5.92%"}
{"smiles": "Cc1ccccc1/C=N/n1c(-c2ccccn2)n[nH]c1=S", "activity change, negative = inhibition": "inactive: -14.5%"}
{"smiles": "Cc1[nH]c(=O)c(C#N)c2c1CSC(C)(C)C2", "activity change, negative = inhibition": "inactive: -12.2%"}
{"smiles": "COc1ccc(-c2coc3cc(OC(C)=O)cc(OC(C)=O)c3c2=O)cc1", "Potency": "inconclusive: 25.1 µM [inhibitor, partial curve]"}
{"smiles": "O=C(N/C(=C\\c1ccc(Br)cc1)c1nc2ccccc2[nH]1)c1ccco1", "Potency": "inconclusive: 35.5 µM [inhibitor, partial curve]"}
{"smiles": "O=C(O)c1ccc(-c2nc(-c3ccccc3)cs2)cc1", "Potency": "inconclusive: 28.2 µM [inhibitor, partial curve]"}
{"smiles": "COc1cc(CCC(=O)Nc2cccc(C(F)(F)F)c2)cc(OC)c1OC", "activity change, negative = inhibition": "inactive: -9.09%"}
{"smiles": "C=CCC(C)(O)c1ccsc1", "note": "(stereo not drawn)", "activity change, negative = inhibition": "inactive: 5.58%"}
{"smiles": "CCNC(=S)N(CCc1ccccc1C)Cc1cc2cc(OC)c(OC)cc2[nH]c1=O", "Potency": "inconclusive: 28.2 µM [inhibitor, partial curve]"}
{"smiles": "Cc1c(C)n(C(=O)CSc2ncn[nH]2)c2ccccc12", "Potency": "inconclusive: 39.8 µM [inhibitor, single point]"}
{"smiles": "Cc1nc2cc(N)ccc2n1C1CCCCC1", "Potency": "inconclusive: 35.5 µM [inhibitor, single point]"}
{"smiles": "COC(=O)Cc1[nH]n(-c2nc3ccccc3s2)c(=O)c1C(C)=Nc1ccc(Cl)cc1", "Potency": "active: 35.5 µM"}
{"smiles": "Cc1nc2ccc(NC(=O)/C=C/C(=O)O)cc2nc1C", "Potency": "inconclusive: 28.2 µM [inhibitor, partial curve]"}
{"smiles": "COc1cccc(OC)c1OCC(C)CNCC1CCCO1", "note": "(stereo not drawn)", "Potency": "inconclusive: 28.2 µM [inhibitor, single point]"}
{"smiles": "COc1cc(OC)c(-c2nn3c(C4CCCCC4)nnc3s2)cc1OC", "Potency": "inconclusive: 35.5 µM [inhibitor, partial curve]"}
{"smiles": "CC(=O)N=c1sc2nc3ccccc3nc2n1N(C(C)=O)C(C)=O", "Potency": "inconclusive: 31.6 µM [inhibitor, partial curve]"}
{"smiles": "CCOc1ccc(OCC)c(Nc2cc(C)nc3nc(C)nn23)c1", "activity change, negative = inhibition": "inactive: -0.0189%"}
{"smiles": "CC(C)=NNc1nc(-c2ccccc2)cs1", "activity change, negative = inhibition": "inactive: -8.04%"}
{"smiles": "COc1ccc(NC(=O)/C(C#N)=C/c2ccc(Br)o2)cc1", "activity change, negative = inhibition": "inactive: -2.91%"}
{"smiles": "Cc1cc(NC(=O)CSCC(=O)N(c2cccc(Cl)c2)C(C(=O)NC2CCCCC2)c2ccc(O)c(O)c2)no1", "note": "(stereo not drawn)", "Potency": "active: 10 µM"}
{"smiles": "COC(=O)c1ccccc1NC(=O)c1sc(=S)n(C)c1N", "activity change, negative = inhibition": "inactive: -9.69%"}
{"smiles": "COc1cccc(/C=N/Nc2ncnc(Cl)c2N)c1O", "Potency": "active: 25.1 µM"}
{"smiles": "C=CCNC(=O)CSc1ncc2c(n1)-c1c(csc1SC)CC2", "Potency": "inconclusive: 25.1 µM [inhibitor, partial curve]"}
